Results published in article PMC10726135.
Some of the results follow. At the low end of the ranking the order means little. The protein was read in a cell extract, so binding may be indirect.

Target: T1, HNF4alpha2 (COS-7 nuclear extract) (UniProt P41235)
T1 sequence: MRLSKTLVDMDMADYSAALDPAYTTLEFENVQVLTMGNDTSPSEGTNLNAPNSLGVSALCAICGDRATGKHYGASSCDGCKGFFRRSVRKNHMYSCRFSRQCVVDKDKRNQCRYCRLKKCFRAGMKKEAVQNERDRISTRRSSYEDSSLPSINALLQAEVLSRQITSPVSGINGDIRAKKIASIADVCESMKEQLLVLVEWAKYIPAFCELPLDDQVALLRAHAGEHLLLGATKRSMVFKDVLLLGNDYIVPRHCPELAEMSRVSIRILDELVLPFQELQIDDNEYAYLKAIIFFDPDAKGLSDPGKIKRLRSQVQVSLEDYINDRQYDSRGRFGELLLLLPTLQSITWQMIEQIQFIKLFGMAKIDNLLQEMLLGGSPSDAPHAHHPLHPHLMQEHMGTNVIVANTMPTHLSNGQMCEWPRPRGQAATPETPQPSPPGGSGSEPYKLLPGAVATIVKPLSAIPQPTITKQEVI
Experiment: protein-binding microarray
Conditions: COS-7 nuclear extract on double-stranded Agilent 4x180k PBM; binding buffer, salt, pH and temperature not given; high values mean tight binding; double strand, one strand shown; sequences stand for … in …GCCTAGGGAGATTAGAGTATCGGTCGA

Sequence	binding signal (log2 normalized intensity)
TGTTTTACCAGGAAGGGCTTTATGACCAGT	1.44
TGTCCTTTAACCTCCCTGCAGGTCTCTAAA	1.19
GATTCCTGCTGAGAGAGCAGGTTGAGTATC	-0.164
GGCTGTGGAGGGCAGTGGATGGGGGCGTTC	0.704
CTGGGAGATAAGATAGCACCAGCCCATTAA	0.0817
ACCAGGCAAAAATGCCAGGCATTTGCGATA	-1.17
TTTGGCTCAGGGCCTCTCCTTCATCTTCAA	-1.07
GGGCTCAAAGGTTACCACCCAGGAGTCTGT	2.67
GAGCAATTATGCACCCGTGGTTGATCAAAG	0.362
GGCTGAGCGTGAACACCGGCCCCCTCCCCC	5.95
CTAGGTGGCGCTGTTGACCTTGAAATGCCA	1.46
CCACCTCCTCTGAAGCTAGGACAAGGCTCA	-1.18
TGAGCTGAGTTCCACAGATAAGGAGGAGAC	-1.04
AGGTTATCTCGGGGCTGGCATGTCTCTGGT	1.24
TTTTTGACCTGTATCTTGTGGTGACCTCTT	4.51
TGTGAGTCCAGTTGAATGATGGCGAGTGTG	1.62
ATGCCAGGAATGCTGAGGAGGGCCTGGGGG	-1.16
GTTTAGTTGGAGAGACAGGTAAATCAGTAC	-0.705
ACCTCTCCCACCTGAATTATTGTATAGCTT	1.1
CTGGCCTCTGAGATTCGGTGAGGGATTGTT	0.00819
GGGACAAAGGTCACAGGAAAGGGACCAAAG	3.38
TCCCATCCCACTAGGTGGCGCTGTTGACCT	3.79
CATCTCCAGTTCCAAAGTCCAGGTGCTTTC	4.48
ACCTCCTGACTAAAGTTCATTGCTTTGAGC	1.68

Sequence	binding signal (log2 normalized intensity)
GACAAACAGACTTCACACTAGAAGACTCAT	-1.12
GCTACAGAGCTCAGATTTCAAGGTGAGCAG	-1.07
AATGGAATACTTGCCTAAGGTCAATGTCCT	3.23
CCTGACCCCCTCCTCACCCCACTTTGGTTC	4.61
TAGATCAGCTTTCAACACTCTGGATTCCTC	-1.15
GGAATGCAGTAGTGCGATGATCATGGCTCA	-0.935
ACAGCCTTTTCTTATCAGGCTCATTCTAAC	-0.858
TTTTTGTTCCACTGGTAACTAGGTTAATGT	1.83
TAGAACGCTGACTCCGGGGAGCAGGCAGAG	-1.11
TCAAGCCTTTGACTCGAATGCGAACCTGTC	0.537
TTTGATCTCTTATCACCCTGAACAGTGGCT	0.123
CTAGAGCCAAGGAAGAGAAGACCAAACAAC	-1.02
AACACAGAACTATCAAACATTTTTGCAACA	-1.1
CCAGCCACGCCCTCTAACCCAGGTTCCCGT	-1.26
ACGCCGGCCAATCCGGCTGGCAGCCGATTG	-1.16
TCCTCTGGAGGCCAAAAGTAGGGAGGAGGG	-1.07
CAAAGGACAAATCTCACTGATAGTCTCCTA	-1.03
CTGACCTTTGCCCCCAGCCTCTCACAGTAG	6.87
TCAACCAGGTTCTCTTTACTGAACGCTGCG	-1.17
AGAACCTGGAACCTAGAGGCCTTTCTCTCT	-1.16
GCAGGGAGGATATCCCTCCGCCTCCCTCCC	2.82
TTTGTGTGGTGAGGAAAAGGAGGAGTTTGA	0.669
GAGTTTGGCCCCAGTTCCCATGGACTGGTT	0.253
GGCAGGACTCTGTCCTGGGCACTGTCCTAG	-0.209

Sequence	binding signal (log2 normalized intensity)
TGGGTGGGGGAAGTGTGGTCAAGGGTCAGT	4
GGGACTAGAACTCAGTGTGAACTCAATGCT	-1.02
CACTCCCTGGAGCAAACTTACTCTGGGGGA	-1.09
GCCGTTCAGGGCCACGGGAAAACCTGACTG	-1.14
ACTTTCTGACTGGCCTGGGAACCCCAAGTT	0.686
TAGGATTAAACACGTTTTATTAGGGGTCAG	3.27
CAAGGAAATCTGGGAAATGTAGCTTTTAAA	-1.16
ACAGGTGGGGGTAAACATAGCAGAAGACCC	-0.722
CTCTCTCTCTCTCACACACACACACACACA	2.03
GGATGGGGTGCAAACTCACCTGGAGAAGCA	-1.1
CCCATTCCTTAGTGCATGGGAACTTCTCAC	0.137
GGCATATCCAACCTTCTCCCACTTCCCTGC	0.618
AAAGGTCTTTGGTGGTGGGGGGTAGCCACT	0.77
CTCAGGCCGACCCCTGCCTGGACTGTCCTA	2.03
TTCTTGCTGCAGCTGGGCTATACAATTCCA	-1.18
CCGTGGTGTATGATGACGCCACGCCGCTCT	-1.08
GCCTTGTGTACTGAGCAGGGTCCAACCCAC	2.7
GGCTTCCCAACTCCATTATCTCTGTAAAAG	0.732
GGATGGACTTTAATCTCCAAGTAACTGAAA	3.01
ACAAAACAGCGTACTGTGCTAAAGAGTGAT	-0.918
GTAAACACAGACTTTGGAATCACAATGATA	1.97
ATGTTATCATTAGGGAAAATAGTGACCCTG	3.24
AACCCTGTTCTTGTAGGATTTCCAAGTGGA	1.54
GGTATTACAAAGCAATCTACTTTTCTTTTG	0.209

Sequence	binding signal (log2 normalized intensity)
GGTATTGAGGGAGCAAAGGGCATGGAGGAT	2.42
GGTAACATCAAAGCCAGGACTTCTAGAGTG	-1.22
TCCATTTCTGCCCCTTGCTCCTGCTTGCTG	1.83
TCGGGGCCTGGTCTGCACTCCAGGAAAGAC	-0.674
TGCAGCAAAACTTTAGGACTTTGAACCTTG	8.63
CTGGCAAATGAAATGTAATCAGCAAGTTTT	0.0878
AAATCAGAACAGTCTGTGACTTGATCTTTG	2.27
CAGGACGTGAAGCAACTAGAACTCTCAGAC	-1.14
AAGGCTGACCACGGGGGCCGCTCTCCCTCC	-1.09
CCATGCAAGTTCCCACAGAGCCCACCATGT	-1.18
CCCTTGGTGTTTAAACACATTTTTTTTTTT	1.7
CCACTGGTTTGCACACACCAAAGCCCAAGG	-1.08
TGGGTCGTTGGTGCTCCCCCACCCTGTGTC	4.69
AAAGACGCGGAGCGGGGGACCGAGAGCCGC	-0.863
GTCTGAGTGCTCATGATGGGAAGCCTCAGG	-1.08
ATTAAACATCTTGCCCACATTCACACAATC	0.834
AGGACAGCCAGGCAGTCGGGAAATTCCAGC	-0.944
CATGTAGTCACATACCTATGCAAACAGCGC	-0.575
GCGGGCCGGGAGGGGGACGCTTTCTGGCGC	-1.2
TTCTTGAGCTACCGCCTGAACCTTGGATCT	3.35
GAGACCTGTTCTGTTCCCTGGACTCAGCTC	1.43
